Data reported in patent US8933232B2, “1,3,4-oxadiazole and 1,3,4-thiadiazole beta-lactamase inhibitors” (priority 2012, dated 2015).
Structures can show the parent of a compound that is named as a salt. At least one structure is not confirmed: it was looked up by name or label, or the drawing left a doubt. Some entries share one result that the patent states for a list of compounds.

System: bacterial strains that express KPC β-lactamases
Experiment: Synergy MIC / standard BLI potentiation MIC assay against strains expressing KPC β-lactamases
Assay type: cell-based
Settings: in the presence of a β-lactam; comparator Avibactam
Description: The experimental protocol was performed according to Clinical and Laboratory Standards Institute (CLSI) guidelines with modifications as described below (CLSI guidelines can be derived from the CLSI document M07-A9 published in January 2012: “Methods for Dilution Antimicrobial Susceptibility Tests for Bacteria That Grow Aerobically; Approved Standard-Ninth Edition”).
To prepare for MIC testing, frozen glycerol stocks of clinical isolates (Klebsiella pneumoniae, Eschericia coli, Enterobacter spp, Citrobacter spp, or Pseudomonas aeruginosa) were used to streak for isolated colonies on rich, non-selective, tryptic soy agar containing 5% sheep's blood (TSAB). Frozen glycerol stocks of laboratory engineered, isogenic E. coli strains, which contain cloned β-lactamase expressing plasmids were used to streak for isolated colonies on rich, selective LB agar supplemented with 25 μg/mL tetracycline to maintain the plasmid. All strains were incubated at 37° C. for 18-24 hrs. […]
Plates were incubated for 18-20 hours at 37° C. with aeration (200 rpm). Following incubation, growth was confirmed visually placing plates over a viewing apparatus (stand with a mirror underneath) and then OD600 was measured using a SpectraMax 340PC384 plate reader (Molecular Devices, Sunnyvale, Calif.). Growth was defined as turbidity that could be detected with the naked eye or achieving minimum OD600 of 0.1. […]

Compound	more active than Avibactam for at least one bacterial strain that expresses KPC β-lactamase and/or better spectrum of activity against KPC strains
C[n+]1ccc(-c2nnc([C@@H]3CC[C@@H]4CN3C(=O)N4OS(=O)(=O)O)s2)cc1 [Compound 786, (2S,5R)-2-(5-(1-methylpyridin-1-ium-4-yl)-1,3,4-thiadiazol-2-yl)-7-oxo-1,6-diazabicyclo[3.2.1]octan-6-yl sulfate]	more active than Avibactam

Molecular target: KPC-2 β-lactamase (Klebsiella pneumoniae, UniProt Q9F663)
Sequence (Q9F663 25-293 limits assumed): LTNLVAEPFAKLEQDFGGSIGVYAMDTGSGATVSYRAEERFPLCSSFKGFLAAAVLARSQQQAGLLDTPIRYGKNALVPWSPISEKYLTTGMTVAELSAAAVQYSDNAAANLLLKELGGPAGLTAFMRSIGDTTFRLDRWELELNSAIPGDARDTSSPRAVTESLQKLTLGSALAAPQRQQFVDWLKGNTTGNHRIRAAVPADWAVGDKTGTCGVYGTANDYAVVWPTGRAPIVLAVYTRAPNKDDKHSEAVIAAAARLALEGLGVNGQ
Experiment: not given
Assay type: biochemical, K. pneumoniae
Settings: KPC-2, 100 μM nitrocefin, PBS pH 7.4, 25° C.; Table IV

Compound	binding affinity (kinact/K) for the β-lactamase enzyme
O=C1N2C[C@@H](CC[C@H]2c2nnc(CC3CCNC3)o2)N1OS(=O)(=O)O (stereo partly drawn) [Compound 764, (2S,5R)-7-oxo-2-(5-(pyrrolidin-3-ylmethyl)-1,3,4-oxadiazol-2-yl)-1,6-diazabicyclo[3.2.1]octan-6-yl hydrogen sulfate]	1000 to 99000 M⁻¹ s⁻¹
O=C1N2C[C@@H](CC[C@H]2c2nnc(CN[C@H]3CCNC3)o2)N1OS(=O)(=O)O [Compound 765, (2S,5R)-7-oxo-2-(5-(((S)-pyrrolidin-3-ylamino)methyl)-1,3,4-oxadiazol-2-yl)-1,6-diazabicyclo[3.2.1]octan-6-yl hydrogen sulfate]	1000 to 99000 M⁻¹ s⁻¹
O=C1N2C[C@@H](CC[C@H]2c2nnc(CN[C@@H]3CCNC3)o2)N1OS(=O)(=O)O [Compound 766, (2S,5R)-7-oxo-2-(5-(((R)-pyrrolidin-3-ylamino)methyl)-1,3,4-oxadiazol-2-yl)-1,6-diazabicyclo[3.2.1]octan-6-yl hydrogen sulfate]	1000 to 99000 M⁻¹ s⁻¹
O=C1N2C[C@@H](CC[C@H]2c2nnc(CNC3CCNCC3)o2)N1OS(=O)(=O)O [Compound 769, (2S,5R)-7-oxo-2-(5-((piperidin-4-ylamino)methyl)-1,3,4-oxadiazol-2-yl)-1,6-diazabicyclo[3.2.1]octan-6-yl hydrogen sulfate]	1000 to 99000 M⁻¹ s⁻¹
O=C1N2C[C@@H](CC[C@H]2c2nnc(CCNC3CCNCC3)o2)N1OS(=O)(=O)O [Compound 770, (2S,5R)-7-oxo-2-(5-(2-(piperidin-4-ylamino)ethyl)-1,3,4-oxadiazol-2-yl)-1,6-diazabicyclo[3.2.1]octan-6-yl hydrogen sulfate]	100000 to 999000 M⁻¹ s⁻¹
O=C1N2C[C@@H](CC[C@H]2c2nnc(CCCNC3CCNCC3)o2)N1OS(=O)(=O)O [Compound 771, (2S,5R)-7-oxo-2-(5-(3-(piperidin-4-ylamino)propyl)-1,3,4-oxadiazol-2-yl)-1,6-diazabicyclo[3.2.1]octan-6-yl hydrogen sulfate]	1000 to 99000 M⁻¹ s⁻¹
O=C1N2C[C@@H](CC[C@H]2c2nnc(CCCCNC3CCNCC3)o2)N1OS(=O)(=O)O [Compound 772, (2S,5R)-7-oxo-2-(5-(4-(piperidin-4-ylamino)butyl)-1,3,4-oxadiazol-2-yl)-1,6-diazabicyclo[3.2.1]octan-6-yl hydrogen sulfate]	1000 to 99000 M⁻¹ s⁻¹
NC1CCN(c2nnc([C@@H]3CC[C@@H]4CN3C(=O)N4OS(=O)(=O)O)o2)CC1 [Compound 773, (2S,5R)-2-(5-(4-aminopiperidin-1-yl)-1,3,4-oxadiazol-2-yl)-7-oxo-1,6-diazabicyclo[3.2.1]octan-6-yl hydrogen sulfate]	1000 to 99000 M⁻¹ s⁻¹
NC1CCN(Cc2nnc([C@@H]3CC[C@@H]4CN3C(=O)N4OS(=O)(=O)O)o2)CC1 [Compound 774, (2S,5R)-2-(5-((4-aminopiperidin-1-yl)methyl)-1,3,4-oxadiazol-2-yl)-7-oxo-1,6-diazabicyclo[3.2.1]octan-6-yl hydrogen sulfate]	1000 to 99000 M⁻¹ s⁻¹
O=C1N2C[C@@H](CC[C@H]2c2nnc(CN3CCNCC3)o2)N1OS(=O)(=O)O [Compound 777, (2S,5R)-7-oxo-2-(5-(piperazin-1-ylmethyl)-1,3,4-oxadiazol-2-yl)-1,6-diazabicyclo[3.2.1]octan-6-yl hydrogen sulfate]	1000 to 99000 M⁻¹ s⁻¹
O=C1N2C[C@@H](CC[C@H]2c2nnc([C@@H]3CNCCN3)o2)N1OS(=O)(=O)O [Compound 778, (2S,5R)-7-oxo-2-(5-((S)-piperazin-2-yl)-1,3,4-oxadiazol-2-yl)-1,6-diazabicyclo[3.2.1]octan-6-yl hydrogen sulfate]	1000 to 99000 M⁻¹ s⁻¹
O=C1N2C[C@@H](CC[C@H]2c2nnc([C@H]3CNCCN3)o2)N1OS(=O)(=O)O [Compound 779, (2S,5R)-7-oxo-2-(5-((R)-piperazin-2-yl)-1,3,4-oxadiazol-2-yl)-1,6-diazabicyclo[3.2.1]octan-6-yl hydrogen sulfate]	100000 to 999000 M⁻¹ s⁻¹
